Screen size: about 150,000 compounds; about 540 (0.36%) showed an effect of 50% or more. This is one part of the list.

This experiment has as its system Plasmodium falciparum. Kind of experiment: Primary screen in NF54 nanoGlo assay, in single point, at 2uM, 72h; a lower Z score goes with more inhibition. The experiment is classed as functional, Erythrocyte. To be noted: timepoint 72 hour.
A word on the % Inhibition: it is the drop in the measured response relative to a control, in per cent. Consider `O=C(c1ccc2ncsc2c1)N1CC[C@H](N2CCOC2=O)C1`, for which the “% Inhibition” value is -2% and the Z score amounted to 0.33.
On to `COC1(CNS(=O)(=O)c2ccc(OCC(N)=O)cc2)Cc2ccccc2C1`, for which the “% Inhibition” value was 6% and the Z score is reported as -0.81.
Take `CC1CC1c1ccc(CNCc2nnc(C(C)(C)C)s2)o1` (stereo not drawn): the “% Inhibition” value is listed as -7% and the Z score was 1.34.
On to `CCOc1ccc(Nc2cc(Nc3ccc(C)c(Cl)c3)cc(N3CCOCC3)c2)cc1`, for which the “% Inhibition” value stood at 6% and the Z score was -0.92.
Regarding `O=C1Nc2ccccc2C(=O)N2CCC[C@@H]12`, the “% Inhibition” value is recorded as -5% and the Z score is 0.56.
For the molecule `C#CCCC1(CCC(=O)N2CC(n3ccnc3)C2)N=N1`, the “% Inhibition” value was -17% and the Z score was found to be 2.08.
In the case of `Cc1cccnc1CNC(=O)C(=O)Nc1nc2ccccc2s1`, the “% Inhibition” value is 2% and the Z score is given as -0.44.
Consider `CCC1CN(C(=O)Nc2ccc3c(n2)CCC3)CC(CC)O1` (stereo not drawn), for which the “% Inhibition” value was found to be 1% and the Z score is -0.15.
The like results for `CNC(=O)CNC(=O)c1ccccc1C` were, in that order, -10% and 0.9.
Turning to `CC1CN(C(=O)C2COCC(=O)N2Cc2ccccc2)CCO1` (stereo not drawn), the “% Inhibition” value stood at 3% and the Z score is -0.43.
In the case of `CNC(=O)CCOC(=O)c1ccc(F)c(C)c1`, the “% Inhibition” value is given as -12% and the Z score was 1.74.
For `Cn1cc(S(=O)(=O)N(CC(F)F)C2CC2)cc1C(N)=O`, the “% Inhibition” value is -4% and the Z score worked out at 0.45.
Regarding `COc1cccc(NC(=O)c2nnc(CCC(=O)Nc3cc(C)ccc3F)s2)c1`, the “% Inhibition” value is listed as -6% and the Z score amounted to 1.1.
Turning to `O=C(c1cccc(C(F)(F)F)c1)N1CCn2nc3c(c2C1)CCC3`, the “% Inhibition” value is recorded as 5% and the Z score is given as -0.87.
In the case of `Cc1ccc(C(=O)NC2CCN(C(=O)c3cn(C)c4ccccc34)CC2)o1`, the “% Inhibition” value is reported as -13% and the Z score is on record as 1.27.
Take `Cc1cc(C)c(C#N)c(N2CCC(n3cc(C(=O)N4CCCCC4)nn3)CC2)n1`: the “% Inhibition” value is on record as -3% and the Z score was determined as 0.57.
The matching figures for `CCCc1nc(CN(C)CC(C)(C)O)cs1`: -14% and 1.47.
The like results for `CC(C)C(=O)N1CCOc2ccc(CN3CCCCCC3)cc2C1` were, in that order, -7% and 1.41.
For the molecule `CC(=O)NCc1cc2n(n1)CCN(S(=O)(=O)c1ccc(Cl)s1)C2`, the “% Inhibition” value is reported as -9% and the Z score came to 1.33.
The like results for `CN1C(=O)[C@@H]2CC[C@H]1CN(C1CCN(c3ncc4ccc(F)cc4n3)CC1)C2` were, in that order, 3% and -0.38.
As to `OC[C@H](CNc1ncccn1)Cc1cccc(Br)c1`, the “% Inhibition” value is on record as -11% and the Z score was 2.09.
Consider `O=C(NCc1ccoc1)C1(N2CCCC2)CCCC1`, for which the “% Inhibition” value is listed as 6% and the Z score is -0.83.
With `COc1cccc(-c2cc(C(=O)Nc3c(C)noc3C)c3c(C)nn(C)c3n2)c1`, the “% Inhibition” value was 14% and the Z score was -2.25.
Turning to `Cc1cncnc1C1CCN(C(=O)[C@H](O)c2ccc(Cl)cc2)CC1`, the “% Inhibition” value is -17% and the Z score is on record as 2.5.
For `Cc1ccc2c(c1)[C@@H](NC(=O)Cc1ccncc1)CC(C)(C)O2`, the “% Inhibition” value is given as -11% and the Z score came to 1.74.
The like results for `COc1cccc(CNS(=O)(=O)c2cc(-c3nc(-c4ccc(Cl)cc4)no3)cs2)c1` were, in that order, -9% and 0.97.
Consider `CCN(CC#N)S(=O)(=O)[C@H]1C[C@@H]1c1ccc(Br)cc1`, for which the “% Inhibition” value is listed as -9% and the Z score is recorded as 1.47.
Turning to `COc1ccc(-c2cc(C)no2)cc1S(=O)(=O)CCC(=O)NCCc1ccccc1`, the “% Inhibition” value was -10% and the Z score came out at 1.32.
With `COc1ccc(CCNC(=O)N2CCC[C@H](Oc3cc(C#N)ccn3)C2)cc1`, the “% Inhibition” value was 1% and the Z score is -0.08.
With `Cc1nnc(-c2ccc3ccn(CC(=O)Nc4cccc(C)c4C)c3c2)o1`, the “% Inhibition” value was 24% and the Z score is recorded as -2.87.
Take `COc1ccc(NC(=O)[C@H]2CCCN(c3ccnc(-c4ccc(F)cc4)n3)C2)c(OC)c1`: the “% Inhibition” value was -2% and the Z score is listed as 0.23.
The matching figures for `Cc1sc(=O)n(CC(=O)N2CCN(C)C[C@H]2c2ccccc2)c1-c1ccc(F)cc1`: 23% and -2.9.
For `CCCC(=O)N1CCC[C@H](c2nn(CCOC)c(=O)n2C2CC2)C1`, the “% Inhibition” value is reported as 7% and the Z score was -0.78.
The like results for `COC1CN(C(=O)Cc2c(C)n[nH]c2C)CCC1C` (stereo not drawn) were, in that order, -1% and 0.07.
With `CC(C)NC(=O)CCN1CC[C@@]2(CCCN(Cc3cccc(F)c3F)C2=O)C1`, the “% Inhibition” value stood at 2% and the Z score was -0.31.
As to `COc1ccc(Nc2c(C(=O)N3CCC[C@H](C)C3)cnc3nc(C)ccc23)cc1`, the “% Inhibition” value is -11% and the Z score turned out to be 1.74.
Turning to `O=C(Cc1ccc(O)cc1)N[C@@H](CC1CCCCC1)C(=O)O`, the “% Inhibition” value is listed as 2% and the Z score was -0.27.
For `Cc1ccc(NC(=O)Cn2c(=O)ccc3cc(S(=O)(=O)N4CCCC4)ccc32)c(C)c1`, the “% Inhibition” value worked out at 1% and the Z score is recorded as -0.18.
The matching figures for `CC(C)C[C@@H](Nc1c(C#N)c(=O)n(C)c(=O)n1C)C(=O)OC(C)(C)C`: -10% and 0.97.
The matching figures for `CC(C)=CCC[C@@]1(C)CCC(=O)N(Cc2nnc3ccccn23)C1`: -6% and 1.1.
As for `CCCCn1ccnc1C1CCN(C(=O)c2cccc(NC(C)=O)c2)CC1`, the “% Inhibition” value came out at 0% and the Z score was 0.04.
As for `Cc1occc1C(=O)NC1(c2ccccc2F)COC1`, the “% Inhibition” value amounted to 5% and the Z score is -1.04.
The matching figures for `O=S(=O)(c1ccc2c(c1)CCO2)N1CCC(OCCc2ccccc2)CC1`: -3% and 0.6.
For the molecule `Cc1c(C(=O)NCCc2cccs2)cnn1C`, the “% Inhibition” value is reported as -1% and the Z score is 0.06.
Consider `C[C@H](NC(=O)NCCNS(C)(=O)=O)c1ccsc1`, for which the “% Inhibition” value was -10% and the Z score is given as 1.09.
The like results for `Cc1ccc(OCC(=O)NC2CCN(c3ccccc3C#N)CC2)cc1` were, in that order, -6% and 0.7.
The matching figures for `Cn1cc(CN2CCC([C@H](O)c3cccnc3)CC2)c(-c2ccc3c(c2)OCCO3)n1`: -8% and 1.36.
On to `O=C(CN1CCN(C2CC2)C1=O)NC1(Cc2ccccc2Br)CC1`, for which the “% Inhibition” value is -2% and the Z score is 0.39.
The like results for `COc1cccc(OC/C=C/CN2CCN(C)CC2)c1` were, in that order, 0% and -0.01.
The matching figures for `Cc1noc(C)c1S(=O)(=O)NCC1(O)CCCC1`: -3% and 0.56.
Turning to `CCOCc1nc2c(c(NC[C@H](C)n3cc(C)cn3)n1)CCNCC2`, the “% Inhibition” value is recorded as -4% and the Z score is listed as 0.73.
The matching figures for `CCC(=O)Nc1ccc(-c2c(F)cccc2OC)c(C)n1`: -6% and 1.04.
The matching figures for `O=C([C@@H]1CCCCN1C(=O)c1ccc(F)c(F)c1)N1CCOCC1`: -7% and 0.89.
The matching figures for `CC(C)Cn1ccnc1CNc1cccc(F)c1C#N`: -6% and 0.57.

Values taken from ChEMBL document CHEMBL4888484, “Replenishing the malaria drug discovery pipeline: Screening and hit evaluation of the MMV Hit Generation Library 1 (HGL1) against asexual blood stage Plasmodium falciparum ,using a nano luciferase reporter read-out” (2022).
